Source: PubChem BioAssay AID360 (National Center for Advancing Translational Sciences (NCATS), 2006)
The campaign covered roughly 48,000 compounds. About 550 (1.1%) were called active. About 4% were inconclusive and are not listed. No stated cut-off is given here; in the data, active means potency below about 15 µM; inconclusive means mostly about 16 µM to 33 µM; inactive means weaker than that. The list shows a part of the results.

biological target: Lysosomal acid glucosylceramidase (Homo sapiens) (UniProt P04062); assay: Glucocerebrosidase; settings: purified enzyme, resorufin glucoside fluorescence (screen aimed at inhibitors), 20 min;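 further: the screen sought inhibitors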
Procedure, shortened: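 Compounds titrated against 0.2 nM normal enzyme, 30 uM resorufin beta-D-glucopyranoside substrate, citrate/phosphate buffer with taurocholate and tween-20, pH 5.9. Reaction ran 20 min at room temperature; fluorescence (Ex 548/Em 600) gave AC50.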
Potency means the concentration at half of the fitted maximal effect.

Chain of UniProt P04062 (P04062 whole entry, looked up): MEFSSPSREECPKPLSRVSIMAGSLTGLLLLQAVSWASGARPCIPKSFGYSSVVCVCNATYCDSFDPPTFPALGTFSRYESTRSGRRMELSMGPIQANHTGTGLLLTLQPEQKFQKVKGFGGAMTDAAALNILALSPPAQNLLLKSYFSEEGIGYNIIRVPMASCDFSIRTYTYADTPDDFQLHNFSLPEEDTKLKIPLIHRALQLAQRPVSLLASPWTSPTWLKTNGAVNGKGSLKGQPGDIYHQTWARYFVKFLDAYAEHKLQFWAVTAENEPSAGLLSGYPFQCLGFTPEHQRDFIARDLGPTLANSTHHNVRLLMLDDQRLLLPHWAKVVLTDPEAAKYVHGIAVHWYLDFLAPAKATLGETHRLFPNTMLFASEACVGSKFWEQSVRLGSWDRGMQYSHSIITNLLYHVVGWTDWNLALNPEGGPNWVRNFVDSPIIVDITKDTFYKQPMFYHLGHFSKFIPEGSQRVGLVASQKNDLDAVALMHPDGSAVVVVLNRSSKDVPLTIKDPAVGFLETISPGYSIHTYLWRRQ

Potency, inactive:
Cc1oc2c(CN3CCOCC3)c(O)ccc2c(=O)c1-c1ccccc1 > 76.9 µM, CCC(C)[C@H](NC(=O)NCc1cccc(OC)c1)C(=O)OC (some centres not stated) > 76.9 µM, CCOC(=O)C1CCN(C(=O)Cn2cc(C(=O)C3CC3)c3ccccc32)CC1 > 76.9 µM, Oc1[nH]c2ccccc2c1C=NCC1CCCO1 (configuration not stated) > 76.9 µM, S=c1nc2ccccc2c2nc(-c3ccccc3)[nH]n12 > 76.9 µM, N/C(=N\c1nc2c(c(=O)[nH]1)CCCC2)Nc1ccccc1 > 76.9 µM, Cc1cccc(-c2nnc(SCc3cc(=O)[nH]c4ccccc34)n2C)c1 > 76.9 µM, CCOC(=O)c1oc2ccccc2c1NC(=O)Cc1cccs1 > 76.9 µM, CC(=O)N1CCN(S(=O)(=O)c2cccc(C(=O)Nc3nc4ccccc4[nH]3)c2)CC1 > 76.9 µM, O=C(CCCCCN1C(=O)CCC1=O)NCc1ccccc1 > 76.9 µM, Cc1ccc(S(=O)(=O)N(C)CCCC(=O)N2CCN(C=O)CC2)cc1 > 76.9 µM, CCSc1ccccc1C(=O)Nc1cc(C)on1 > 76.9 µM, C=CCc1cccc(CNc2c(C)n(C)n(-c3ccccc3)c2=O)c1O > 76.9 µM, COC(=O)C1CCCN1S(=O)(=O)c1ccc2ccccc2c1 (configuration not stated) > 76.9 µM, COc1cc2cc(CN(CCN3CCCC3)C(=O)Nc3ccccc3Cl)c(=O)[nH]c2cc1OC > 76.9 µM, Cc1occc1-c1nnc(SCC(=O)NCCc2ccccc2)n1Cc1ccccc1 > 76.9 µM, CC(C)(C)n1nnnc1C(c1ccncc1)N1CCN(C2CCCCC2)CC1 (configuration not stated) > 76.9 µM, O=C(CC1COc2ccccc2O1)NC1CCCCC1 (configuration not stated) > 76.9 µM, CC(C)Cc1ccc(/C(=N/O)C(=O)O)s1 > 76.9 µM, Cc1cc(C)c2[nH]c(=O)c(C(c3nnnn3CC3CCCO3)N3CCC(C)CC3)cc2c1 (configuration not stated) > 76.9 µM, CC1(C)CNC(=O)c2sc(N3CCCCC3)nc2C1 > 76.9 µM, N#Cc1nc(COc2ccccc2)oc1N1CCN(c2cccc(Cl)c2)CC1 > 76.9 µM, Cc1ccc(C(=O)CN2CCC(NC(=O)C3CCCCC3)CC2)cc1 > 76.9 µM, CCOC(=O)N1CCN(C(=O)CN(C)S(=O)(=O)c2ccc3c(c2)C(C)(C)C(=O)N3C)CC1 > 76.9 µM, COC(=O)c1ccccc1NC(=O)CN(Cc1ccccc1)S(C)(=O)=O > 76.9 µM, CCN(CC)S(=O)(=O)c1cccc(-c2nnc(SCC#N)n2Cc2ccccc2)c1 > 76.9 µM, O=C(O)c1ccc(NS(=O)(=O)/C=C/c2ccccc2)cc1 > 76.9 µM, Cc1ccc(CCNC(=O)C2CCC(=O)N2Cc2cccnc2)cc1 (configuration not stated) > 76.9 µM, O=C(O)C1CCCN1C(=O)Nc1ccc(F)cc1 (configuration not stated) > 76.9 µM, COc1ccc(NC(=O)CSc2nnc(Cc3cccn3C)n2CCc2ccccc2)c(OC)c1 > 76.9 µM, CN(C)c1ccc(NC(=O)CN2CCC(C(=O)c3ccc(F)cc3)CC2)cc1 > 76.9 µM, Cc1cccn2c(=O)c3cc(C#N)c(=N)n(Cc4cccnc4)c3nc12 > 76.9 µM, COc1cc(N)ccc1NC(=O)c1cccs1 > 76.9 µM, O=C(CC1C(=O)NCCN1C(=O)Nc1ccccc1)Nc1ccc2c(c1)OCCO2 (configuration not stated) > 76.9 µM, CCCOc1ccccc1C(=O)N(Cc1ccco1)C1CCS(=O)(=O)C1 (configuration not stated) > 76.9 µM, COC(=O)CSc1nnc(-c2ccco2)n1-c1ccc(C)cc1 > 76.9 µM, Cn1cc(/C=N/n2cnc3scc(-c4ccccc4)c3c2=O)c2ccccc21 > 76.9 µM, O=C(c1cc(-c2cccs2)on1)N1CCCCC1 > 76.9 µM, CCCCc1n[nH]c2c1C(=O)CC(C)(C)C2 > 76.9 µM, CCOC(=O)N1CCC(NC(=O)c2cc(C(=O)Nc3cccc(OC)c3)ccc2CO)CC1 > 76.9 µM, COc1ccccc1OCc1ccc(C(=O)N2CCN(C(=O)c3ccco3)CC2)cc1 > 76.9 µM, CCOc1ccc(NC(C)c2cc(Cl)ccc2O)cc1 (configuration not stated), Cc1ccc(SCC(=O)N2CC(C)OC(C)C2)cc1 (configuration not stated) > 76.9 µM, C=CCN(CC=C)C(=O)C1CCC(C(=O)N(CC=C)CC=C)CC1 (configuration not stated) > 76.9 µM, O=C(NCCc1ccccc1)C1CCCN(S(=O)(=O)c2cccnc2)C1 (configuration not stated) > 76.9 µM, Cc1ccccc1NC(=O)c1c(O)c2cccc3c2n(c1=O)CCC3 > 76.9 µM, COc1ccc(CCNC(=O)Cn2nnc(-c3ccc(N4CCOCC4)cc3)n2)cc1OC > 76.9 µM, C=C1CSc2nc(=O)c3c(C)c(C)sc3n21 > 76.9 µM, CC(C)=CC(=O)Nc1ccccc1Br > 76.9 µM, COc1ccc2nc(SCC(=O)Nc3ccc(S(=O)(=O)N4CCCC4)cc3)c(C#N)cc2c1 > 76.9 µM, Cc1cccc(CN2CCN(CC(=O)O)C2=O)c1 > 76.9 µM, CC(C)C(=O)N1c2ccccc2NC2=C(C(=O)CCC2)C1c1ccc(N(C)C)cc1 (configuration not stated) > 76.9 µM, COc1ccccc1N1CCN(C2=CC(=O)CCC2)CC1 > 76.9 µM, Cc1ccc(NC(=O)C(C)N2C(=O)C3CC=C(Cl)CC3C2=O)cc1 (configuration not stated) > 76.9 µM, CCOC(=O)c1c(-c2ccc(C)cc2C)csc1NC(=O)CSc1nnnn1C > 76.9 µM, CC(Sc1nnnn1C)C(=O)Nc1ccc(Oc2ccccc2)cc1 (configuration not stated) > 76.9 µM, CC(NCc1ccco1)C(=O)N1CCc2ccccc2C1 (configuration not stated) > 76.9 µM, Cc1cc(C(=O)Nc2ccc3c(c2)OCO3)cs1 > 76.9 µM, CSc1ccccc1C(=O)N1CCOCC1 > 76.9 µM, O=c1n(Cc2ccccc2)c2cc(Cl)cnc2n1Cc1ccccc1, COc1ccccc1C(=O)Oc1ccc(N2C(=O)CCC2=O)cc1 > 76.9 µM, Cc1n[nH]c(C)c1Cc1ccc(C(=O)O)cc1 > 76.9 µM, CC1CN(c2nc3c(c(=O)[nH]c(=O)n3C)n2Cc2ccccc2F)CC(C)O1 (configuration not stated) > 76.9 µM, Cc1cc(C)cc(NC(=O)N2CCC(NC(=O)c3ccc(F)cc3)CC2)c1 > 76.9 µM, c1ccn2c(CNc3ncnc4sccc34)nnc2c1 > 76.9 µM, O=C(CCc1c[nH]c2ccccc12)NCC1CCCO1 (configuration not stated) > 76.9 µM, CCOC(=O)c1oc2ccccc2c1CSc1nnnn1-c1ccc(C)cc1 > 76.9 µM, Cc1ccc2c(c1)nnn2C1CCN(C(=O)NC23CC4CC(CC(C4)C2)C3)CC1 > 76.9 µM, Cn1c(=O)c2nc(Cl)n(Cc3ccc(Cl)cc3Cl)c2n(C)c1=O > 76.9 µM, Cc1c(C(=O)OCc2cc(=O)n3cc(Br)ccc3n2)oc2ccccc12 > 76.9 µM, CCOC(=O)N1CCN(C(=O)C2CCC(CNS(=O)(=O)c3ccc(Cl)cc3)CC2)CC1 (configuration not stated) > 76.9 µM, COC(=O)c1ccc(CSc2nnc3sc4ccccc4n23)o1 > 76.9 µM, Cc1cc(C(=O)Nc2ccccn2)cs1 > 76.9 µM, COc1cc(-c2c(C#N)c(=O)[nH]c3c2c(C)nn3-c2ccccc2)ccc1O > 76.9 µM, CN1CCN(CC(=O)N(C)c2nc(-c3ccccc3)cs2)CC1 > 76.9 µM, Cc1noc(/C=C/c2ccco2)c1S(=O)(=O)N1CCC(C(=O)N2c3ccccc3CC2C)CC1 (configuration not stated) > 76.9 µM, O=C(CSCc1ccc(Br)cc1)N1CCOCC1 > 76.9 µM, CCn1c(Cc2ccccc2)nnc1SCC(=O)Nc1cc(C)on1 > 76.9 µM, Cc1cccc(NC(=O)Cn2c(=O)oc3ccccc32)c1 > 76.9 µM, O=C(NC1CCCC1)c1cc(-c2cccs2)on1 > 76.9 µM, COC(=O)c1ccc(NC2(C#N)C(=O)Nc3ccccc32)cc1 (configuration not stated) > 76.9 µM, CCNC(=O)CC1C(=O)N(c2ccc(F)cc2)C(=O)N1CCc1ccc(OC)cc1 (configuration not stated) > 76.9 µM, CCOCC(=O)Nc1nnc(COc2ccc(Cl)cc2)s1 > 76.9 µM, O=c1[nH]c2cc(Cl)ccc2n1-c1ccccc1 > 76.9 µM, COc1ccccc1NC(=O)CN1CCC(n2nnc3cc(F)ccc32)CC1 > 76.9 µM, O=C(CCS(=O)(=O)c1cccs1)N1CCN(c2ccc(F)cc2)CC1 > 76.9 µM, Clc1ccccc1Cn1nnc2c(Nc3ccccc3)ncnc21 > 76.9 µM, CCN1C(=O)CC(N2CCC(C(=O)OC)CC2)C1=O (configuration not stated) > 76.9 µM, O=C(Cc1cccs1)Nc1cccnc1 > 76.9 µM

Potency, active:
CCn1c(Cn2nnc(-c3ccccc3)n2)nnc1SCC(=O)Nc1ccccc1 9.58 µM, COc1ccc2ccccc2c1C1CC(=O)N2CN(C)CSC2=C1C#N (configuration not stated) 14.5 µM, O=c1c2c(nc3c(-c4ccc(Cl)cc4)c[nH]n13)CCCC2 6.48 µM
